Assay results published in patent publication US20110178118A1, “PALONOSETRON FOR THE TREATMENT OF CHEMOTHERAPY INDUCED EMESES” (priority 2002, published 2011).

Tested on: Highly Emetogenic Chemotherapy-Induced Nausea and Vomiting
Assay: Phase II dose-ranging trial, single I.V. palonosetron, efficacy
Settings: complete control (no emesis, no rescue, mild nausea)
Procedure: A randomized, double-blind, multicenter, dose-ranging Phase II trial was performed to identify the dose response relationship among single I.V. doses of palonosetron. Patients receiving highly emetogenic chemotherapy including cyclophosphamide (>1100 mg/m2) and cisplatin (>70 mg/m2), commonly associated with delayed emesis, were assigned to one of five dose groups of a single I.V. administration of palonosetron. Palonosetron was administered alone (without dexamethasone) as a 30 second intravenous injection, 30 minutes prior to chemotherapy administration. The primary endpoint was 24-hour complete responses (no emesis, no rescue) (CR). Secondary endpoints included complete control (no emesis, no rescue, mild nausea) (CC) and 5-day CR.
161 patients (32 women, 129 men) participated. […] The most commonly reported adverse events related to study medication include: headache (19.3%); constipation (8.7%), dizziness (2.5%) and abdominal pain (2.5%).

For Cl.O=C1c2cccc3c2[C@H](CCC3)CN1[C@@H]1CN2CCC1CC2 [Palonosetron, (3aS)-2,3,3a,4,5,6-Hexahydro-2-[(S)-1-Azabicyclo[2.2.2]oct-3-yl]2,3,3a,4,5,6-hexahydro-1-oxo-1Hbenz[de]isoquinoline hydrochloride], the “% CC(24 hr)” value (palonosetron 0.3-1 mcg/kg single I.V.) was 24%, the “% CC(24 hr)” value (palonosetron 3 mcg/kg single I.V.) was 39% and the “% CC(24 hr)” value (palonosetron 10 mcg/kg single I.V.) was 40%. For the same compound, the “% CC(24 hr)” value (palonosetron 30 mcg/kg single I.V.) was 48% and the “% CC(24 hr)” value (palonosetron 90 mcg/kg single I.V.) was 46%.
